# B1: 9E6-L4H2: humanized anti-CD40 antibody, heavy chain SEQ ID NO: 20, light chain SEQ ID NO: 21, IgG1 N297A (antibody)
# heavy: QVQVQESGPGLVKPSDTLSLTCTVSGFSLSSYDMSWIRQPPGKGLEWIGAIGGAGGTYYASWAKSRVTISVDTSLNQVSLKLSSVTAADTAVYYCARGWTRLDLWGQGTLVTVSSASTKGPSVFPLAPSSKSTSGGTAALGCLVKDYFPEPVTVSWNSGALTSGVHTFPAVLQSSGLYSLSSVVTVPSSSLGTQTYICNVNHKPSNTKVDKKV[human IgG1 Fc with changes not spelt out]
# light: DIQLTQSPSFLSASVGDRVTITCQASEDISSNLAWYQQKPGKPPKLLIFPASNLASGVPSRFSGSGSGTEFTLTISSLQPEDFATYYCQGGYWTSTSNFGQGFGGGTKVEIKRTVAAPSVFIFPPSDEQLKSGTASVVCLLNNFYPREAKVQWKVDNALQSGNSQESVTEQDSKDSTYSLSSTLTLSKADYEKHKVYACEVTHQGLSSPVTKSFNRGEC
# What was measured:
# [1] = test system: Cynomolgus monkey CD40; test: SPR affinity of anti-CD40-ADC for cynomolgus monkey CD40; assay type: binding; details: mobile phase Cynomolgus monkey CD40
# [2] = test system: Cynomolgus monkey CD40; test: SPR (Biacore) affinity of anti-CD40 antibodies for cynomolgus monkey CD40; assay type: binding; details: mobile phase Cynomolgus monkey CD40
# [3] = test system: human CD40 transgenic mice; test: Mouse T cell-dependent humoral immune response (TDAR) model, anti-KLH specific IgG; assay type: in vivo; details: 0.3 mpk BIW ip, hCD40 transgenic mice (IgG1 control 1 mg/kg)
# [4] = test system: human CD40 transgenic mice; test: Mouse skin graft rejection model (antibodies, tacrolimus combination); assay type: in vivo
# [5] = target: T1, CD40 (Homo sapiens, UniProt P25942); test: SPR affinity of anti-CD40-ADC for human CD40; assay type: binding; set-up: Glu21-Arg193; purchased Acrobiosystems Inc. CD0-H5228; details: mobile phase Human CD40
# T1 sequence (P25942 21-277): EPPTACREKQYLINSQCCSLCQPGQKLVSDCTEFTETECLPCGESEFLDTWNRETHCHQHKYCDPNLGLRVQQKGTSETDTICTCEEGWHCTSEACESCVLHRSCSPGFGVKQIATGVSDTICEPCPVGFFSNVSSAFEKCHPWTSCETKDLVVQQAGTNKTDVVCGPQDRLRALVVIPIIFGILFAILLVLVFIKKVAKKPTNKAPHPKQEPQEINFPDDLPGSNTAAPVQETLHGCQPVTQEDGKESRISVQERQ
# [6] = target: T1, CD40; test: Agonistic activity in B cell activation assay system without CD40L; assay type: cell-based; set-up: endogenous in cells; host or cells: human PBMCs (B cells); DCs differentiated from human CD14+ monocytes; details: human PBMCs without CD40L, FIG. 4; antagonists at 2.5 nM
# [7] = target: T1, CD40; test: SPR (Biacore) affinity of anti-CD40 antibodies for human CD40; assay type: binding; set-up: Glu21-Arg193; purchased Acrobiosystems Inc. CD0-H5228; details: mobile phase Human CD40
# [8] = target: T1, CD40; test: B cell activation assay system (human PBMCs, CD40L-induced CD19+CD69+); assay type: cell-based; set-up: endogenous in cells; host or cells: human PBMCs (B cells); DCs differentiated from human CD14+ monocytes; details: CD40L stimulation overnight
# [9] = test system: human CD40 transgenic mice; test: Mouse skin graft rejection model (anti-CD40-ADC); assay type: in vivo; details: 10 mpk ip, budesonide 0.12 mg/kg QD, dexamethasone 20 mpk QD
# [10] = mouse, in vivo, ip, 10 mg/kg
# [11] = target: T1, CD40; test: Inhibitory activity of anti-CD40-ADC in B cell activation assay system (human PBMCs); assay type: cell-based; set-up: endogenous in cells; host or cells: human PBMCs (B cells); DCs differentiated from human CD14+ monocytes
# [12] = Table 21: 9E6-L4H2 10 mpk, FK506 3 mpk, alone or combined
molecule,measurement,setting,value
B1,Ka,[1],468000 M⁻¹ s⁻¹
same,Kd,[1],0.000138 s⁻¹
same,Ka,[2],514000 M⁻¹ s⁻¹
same,Kd,[2],6.23e-05 s⁻¹
same,"anti-KLH specific IgG, Day 7",[3],0.002 ± 0.001
same,"anti-KLH specific IgG, Day 14",[3],0.02 ± 0.01
same,"anti-KLH specific IgG, Day 21",[3],0
same,"anti-KLH specific IgG, Day 28",[3],18.25 ± 8.9
same,Day-15 skin graft survival rate (%),[4]; 3 mpk ip,28.5%
same,"Skin graft score, 8 days","[4]; 3 mpk, score 3 (best) to 0 (rejected)",3
same,"Skin graft score, 10 days","[4]; 3 mpk, score 3 to 0",2.7
same,"Skin graft score, 15 days","[4]; 3 mpk, score 3 to 0",0.6
same,"Skin graft score, 20 days","[4]; 3 mpk, score 3 to 0",0
same,Day-15 skin graft survival rate (%),[4]; 10 mpk ip,14.3%
same,"Skin graft score, 8 days","[4]; 10 mpk, score 3 to 0",3
same,"Skin graft score, 10 days","[4]; 10 mpk, score 3 to 0",2.7
same,"Skin graft score, 15 days","[4]; 10 mpk, score 3 to 0",0.3
same,"Skin graft score, 20 days","[4]; 10 mpk, score 3 to 0",0
same,Day-15 skin graft survival rate (%),"[4]; Table 20: antibody 10 mpk, FK506 3 mpk, alone or combined",14.3%
same,"Skin graft score, 8 days",[4]; [12],3
same,"Skin graft score, 10 days",[4]; [12],2.7
same,"Skin graft score, 15 days",[4]; [12],0.3
same,"Skin graft score, 20 days",[4]; [12],0
same,Ka,[5],407000 M⁻¹ s⁻¹
same,Kd,[5],0.000377 s⁻¹
same,B cell agonistic activity,[6],no significant B cell agonistic activity
same,Ka,[7],413000 M⁻¹ s⁻¹
same,"koff (dissociation rate constant, 1/s)",[7],0.000221 s⁻¹
same,CD19+CD69+ MFI Maximum inhibition rate,[8],110%
same,CD19+CD69+% Maximum inhibition rate,[8],98%
same,"Skin graft survival rate (%), 10 days",[9],100%
same,"Skin graft survival rate (%), 15 days",[9],44.4%
same,"Skin graft survival rate (%), 20 days",[9],11%
same,"Skin graft score, 10 days",[9]; score 3 to 0,2.78
same,"Skin graft score, 15 days",[9]; score 3 to 0,1
same,"Skin graft score, 20 days",[9]; score 3 to 0,0.22
same,AUC(0-d14)((h) * (mg/L)),[10],13439 (h) * (mg/L)
same,C max,[10],85.8 µg/mL
same,T1/2,[10],226.8 h
same,CD19+CD69+% Maximum inhibition rate,[11]; Donor 1,95%
same,CD19+CD69+% Maximum inhibition rate,[11]; Donor 2,104%

# Source: patent US20260207759A1, “COMPOSITION OF CD40-BINDING MOLECULE AND PHARMACEUTICAL USE THEREOF” (SUZHOU SUNCADIA BIOPHARMACEUTICALS CO., LTD., priority 2022, published 2026)
